From the antibiotic and cytotoxicity screens of Wong et al. (2023)
The list shows a part of the results.

What was measured:
[1] = test system: HSkMC (human skeletal muscle cells); assay: cytotoxicity call (relative viability < 0.9); conditions: 10 µM
[2] = test system: HepG2; assay: cytotoxicity call (relative viability < 0.9); conditions: 10 µM
[3] = test system: S. aureus RN4220; assay: growth inhibition call (relative growth <= 0.2); conditions: 50 µM

CN1CC(=O)NC1=O
inactive: cytotoxicity call [1] | cytotoxicity call [2] | growth inhibition call [3]

C[C@H](CO)N1C[C@H](C)[C@H](CN(C)CC2CC2)Oc2ccc(NC(=O)CCN3CCOCC3)cc2C1=O
inactive: cytotoxicity call [1] | cytotoxicity call [2] | growth inhibition call [3]

CC1=Nc2ccc(Cl)cc2S(=O)(=O)N1
inactive: cytotoxicity call [1] | cytotoxicity call [2] | growth inhibition call [3]

CC(C)NC(=O)N(C)C[C@H]1Oc2c(NS(=O)(=O)c3ccc(Cl)cc3)cccc2C(=O)N([C@@H](C)CO)C[C@@H]1C
inactive: cytotoxicity call [1] | cytotoxicity call [2] | growth inhibition call [3]

C[C@@H]1CCCCO[C@@H](CN(C)Cc2ccc(C(F)(F)F)cc2)[C@H](C)CN([C@H](C)CO)C(=O)c2cc(NC(=O)Nc3ccc(F)cc3)ccc2O1
inactive: cytotoxicity call [1] | cytotoxicity call [2] | growth inhibition call [3]

COC(=O)Cn1nc(N)c2ccccc21
inactive: cytotoxicity call [1] | cytotoxicity call [2] | growth inhibition call [3]

C[C@@H]1CCCCO[C@H](CN(C)C(=O)C2CCCCC2)[C@@H](C)CN([C@H](C)CO)C(=O)c2cc(NC(=O)Nc3ccc(C(F)(F)F)cc3)ccc2O1
inactive: cytotoxicity call [1] | cytotoxicity call [2] | growth inhibition call [3]

COc1ccc(NC(=O)N(C)C[C@@H]2OCCCC[C@@H](C)Oc3ccc(NC(=O)CCC(F)(F)F)cc3C(=O)N([C@H](C)CO)C[C@@H]2C)cc1
inactive: cytotoxicity call [1] | cytotoxicity call [2] | growth inhibition call [3]

C[C@@H]1CCCCO[C@H](CN(C)C(=O)CCC(F)(F)F)[C@H](C)CN([C@@H](C)CO)C(=O)c2cc(NS(=O)(=O)c3ccc(F)cc3)ccc2O1
inactive: cytotoxicity call [1] | cytotoxicity call [2] | growth inhibition call [3]

O=C1C[C@@H](O)[C@@H](O)c2c(O)cccc21
inactive: cytotoxicity call [1] | cytotoxicity call [2] | growth inhibition call [3]

C[C@@H]1CN([C@H](C)CO)C(=O)Cc2cc(NS(=O)(=O)c3ccc(F)cc3)ccc2O[C@@H]1CN(C)CC1CC1
inactive: cytotoxicity call [1] | cytotoxicity call [2] | growth inhibition call [3]

O=C(N[C@H]1C=C[C@@H](CC(=O)N2CCOCC2)O[C@H]1CO)c1ccccn1
inactive: cytotoxicity call [1] | cytotoxicity call [2] | growth inhibition call [3]

OC[C@@H](O)[C@@H](O)[C@H](O)[C@@H](O)CO
inactive: cytotoxicity call [1] | cytotoxicity call [2] | growth inhibition call [3]

C[C@@H]1CN([C@@H](C)CO)C(=O)c2cc(NC(=O)c3ccccc3)ccc2O[C@@H](C)CCCCO[C@@H]1CN(C)Cc1ccccc1
inactive: cytotoxicity call [1] | cytotoxicity call [2] | growth inhibition call [3]

O=C(O[C@H](Cc1ccc(O)c(O)c1)C(=O)O)[C@H]1[C@H](C(=O)O[C@@H](Cc2ccc(O)c(O)c2)C(=O)O)[C@H](c2ccc(O)c(O)c2)[C@@H]1c1ccc(O)c(O)c1
inactive: cytotoxicity call [1] | cytotoxicity call [2] | growth inhibition call [3]

CCCN(C)C[C@H]1OCCCC[C@H](C)Oc2ccc(NC(=O)Nc3ccc(F)cc3)cc2C(=O)N([C@@H](C)CO)C[C@H]1C
inactive: cytotoxicity call [1] | cytotoxicity call [2] | growth inhibition call [3]

C[C@@H]1CN([C@@H](C)CO)C(=O)c2cc(NC(=O)Cn3cnnn3)ccc2O[C@@H]1CN(C)C(=O)Nc1cccc2ccccc12
inactive: cytotoxicity call [1] | cytotoxicity call [2] | growth inhibition call [3]

CCC(=O)Oc1ccc2c(c1)CCC1C2CCC2(C)C1CC(OC(=O)CC)C2OC(=O)CC (stereo not given)
inactive: cytotoxicity call [1] | cytotoxicity call [2] | growth inhibition call [3]

C[C@@H]1CCCCO[C@H](CN(C)C(=O)C2CCCCC2)[C@H](C)CN([C@@H](C)CO)C(=O)c2cc(NS(=O)(=O)c3ccccc3)ccc2O1
inactive: cytotoxicity call [1] | cytotoxicity call [2] | growth inhibition call [3]

C[C@H]1CCCCO[C@H](CN(C)Cc2ccccc2)[C@@H](C)CN([C@@H](C)CO)C(=O)c2cc(NC(=O)c3ccccc3)ccc2O1
inactive: cytotoxicity call [1] | cytotoxicity call [2] | growth inhibition call [3]

C[C@@H]1CCCCO[C@H](CN(C)C(=O)Nc2ccccc2)[C@@H](C)CN([C@H](C)CO)C(=O)c2cc(NC(=O)Nc3ccc(C(F)(F)F)cc3)ccc2O1
inactive: cytotoxicity call [1] | cytotoxicity call [2] | growth inhibition call [3]

Cc1noc(C)c1S(=O)(=O)Nc1ccc2c(c1)CC(=O)N([C@@H](C)CO)C[C@H](C)[C@@H](CN(C)Cc1ccc(-c3ccccc3)cc1)O2
inactive: cytotoxicity call [1] | cytotoxicity call [2] | growth inhibition call [3]

C[C@@H]1CN([C@@H](C)CO)C(=O)c2cc(C#Cc3ccccc3F)cnc2O[C@H]1CN(C)C(=O)Cc1cccnc1
inactive: cytotoxicity call [1] | cytotoxicity call [2] | growth inhibition call [3]

C[C@@H]1CCCCO[C@H](CN(C)Cc2ccc(Cl)c(Cl)c2)[C@@H](C)CN([C@H](C)CO)C(=O)c2cc(NC(=O)Nc3cccc4ccccc34)ccc2O1
inactive: cytotoxicity call [1] | cytotoxicity call [2] | growth inhibition call [3]

C[C@H](CO)N1C[C@H](C)[C@@H](CN(C)CC2CCCCC2)Oc2c(NC(=O)Nc3cccc4ccccc34)cccc2C1=O
inactive: cytotoxicity call [1] | cytotoxicity call [2] | growth inhibition call [3]
